Measured values from PMC12280212.
A number of entries come with more than one value. This is not the full list of results. The source may hold further records. Some entries list several cross-links; each record is another pair of residues.

Target: CALR (UniProt P27797)
Test: cross-linking mass spectrometry
Settings: DSSO, in cells

PDIA4, sequence (P13667 whole entry): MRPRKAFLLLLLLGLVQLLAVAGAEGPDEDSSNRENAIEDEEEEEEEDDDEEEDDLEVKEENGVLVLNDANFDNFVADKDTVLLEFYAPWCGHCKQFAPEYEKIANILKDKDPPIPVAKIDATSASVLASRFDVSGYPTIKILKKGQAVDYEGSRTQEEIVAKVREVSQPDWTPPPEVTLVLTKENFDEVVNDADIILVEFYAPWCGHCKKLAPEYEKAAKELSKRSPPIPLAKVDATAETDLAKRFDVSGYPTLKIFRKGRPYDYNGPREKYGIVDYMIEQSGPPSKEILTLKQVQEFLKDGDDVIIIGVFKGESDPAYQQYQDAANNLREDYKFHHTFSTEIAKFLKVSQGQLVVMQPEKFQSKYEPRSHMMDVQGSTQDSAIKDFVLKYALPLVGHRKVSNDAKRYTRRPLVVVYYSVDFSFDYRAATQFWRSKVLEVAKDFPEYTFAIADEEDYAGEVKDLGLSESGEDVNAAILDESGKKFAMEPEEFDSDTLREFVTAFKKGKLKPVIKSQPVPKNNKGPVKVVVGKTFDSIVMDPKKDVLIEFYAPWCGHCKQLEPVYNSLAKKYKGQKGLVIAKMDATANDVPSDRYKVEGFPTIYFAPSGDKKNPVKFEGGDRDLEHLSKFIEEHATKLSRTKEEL
CALR, P27797, sequence (P27797 whole entry): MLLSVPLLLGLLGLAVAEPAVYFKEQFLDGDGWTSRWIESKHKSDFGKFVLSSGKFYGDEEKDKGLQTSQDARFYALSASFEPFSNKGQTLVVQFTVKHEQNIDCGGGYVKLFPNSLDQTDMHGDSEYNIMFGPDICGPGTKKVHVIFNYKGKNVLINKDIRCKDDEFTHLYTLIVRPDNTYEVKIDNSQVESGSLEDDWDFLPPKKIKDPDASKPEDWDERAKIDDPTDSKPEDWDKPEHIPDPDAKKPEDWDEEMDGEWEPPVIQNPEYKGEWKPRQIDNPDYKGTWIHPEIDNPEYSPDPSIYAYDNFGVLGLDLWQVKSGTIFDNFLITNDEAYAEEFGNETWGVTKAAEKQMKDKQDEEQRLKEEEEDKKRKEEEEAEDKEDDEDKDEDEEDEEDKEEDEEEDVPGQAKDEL
PPIB, sequence (P23284 whole entry): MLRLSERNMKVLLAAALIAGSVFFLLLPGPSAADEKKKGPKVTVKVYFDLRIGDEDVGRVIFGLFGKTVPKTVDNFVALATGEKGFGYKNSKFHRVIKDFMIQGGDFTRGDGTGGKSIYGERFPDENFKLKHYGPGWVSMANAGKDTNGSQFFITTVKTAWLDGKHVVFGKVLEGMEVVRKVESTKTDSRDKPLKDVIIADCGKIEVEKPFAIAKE
HSPA5, sequence (P11021 whole entry): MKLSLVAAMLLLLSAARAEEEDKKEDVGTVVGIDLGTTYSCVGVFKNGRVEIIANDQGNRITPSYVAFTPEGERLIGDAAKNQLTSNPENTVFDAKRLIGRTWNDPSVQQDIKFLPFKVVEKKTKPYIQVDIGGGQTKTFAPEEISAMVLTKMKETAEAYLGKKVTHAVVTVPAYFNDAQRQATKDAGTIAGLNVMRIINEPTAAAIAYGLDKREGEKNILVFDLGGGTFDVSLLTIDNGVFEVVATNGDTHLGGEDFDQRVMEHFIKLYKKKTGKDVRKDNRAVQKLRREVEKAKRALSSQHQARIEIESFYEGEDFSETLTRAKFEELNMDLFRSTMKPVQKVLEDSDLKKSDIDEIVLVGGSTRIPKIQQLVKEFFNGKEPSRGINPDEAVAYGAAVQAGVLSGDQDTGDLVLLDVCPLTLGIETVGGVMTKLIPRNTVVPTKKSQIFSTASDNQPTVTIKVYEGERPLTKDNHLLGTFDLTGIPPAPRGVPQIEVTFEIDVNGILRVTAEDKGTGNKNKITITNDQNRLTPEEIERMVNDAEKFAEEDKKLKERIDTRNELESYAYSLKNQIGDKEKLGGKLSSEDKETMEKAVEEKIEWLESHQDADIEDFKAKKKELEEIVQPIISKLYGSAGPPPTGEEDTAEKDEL
HSP90B1, sequence (P14625 whole entry): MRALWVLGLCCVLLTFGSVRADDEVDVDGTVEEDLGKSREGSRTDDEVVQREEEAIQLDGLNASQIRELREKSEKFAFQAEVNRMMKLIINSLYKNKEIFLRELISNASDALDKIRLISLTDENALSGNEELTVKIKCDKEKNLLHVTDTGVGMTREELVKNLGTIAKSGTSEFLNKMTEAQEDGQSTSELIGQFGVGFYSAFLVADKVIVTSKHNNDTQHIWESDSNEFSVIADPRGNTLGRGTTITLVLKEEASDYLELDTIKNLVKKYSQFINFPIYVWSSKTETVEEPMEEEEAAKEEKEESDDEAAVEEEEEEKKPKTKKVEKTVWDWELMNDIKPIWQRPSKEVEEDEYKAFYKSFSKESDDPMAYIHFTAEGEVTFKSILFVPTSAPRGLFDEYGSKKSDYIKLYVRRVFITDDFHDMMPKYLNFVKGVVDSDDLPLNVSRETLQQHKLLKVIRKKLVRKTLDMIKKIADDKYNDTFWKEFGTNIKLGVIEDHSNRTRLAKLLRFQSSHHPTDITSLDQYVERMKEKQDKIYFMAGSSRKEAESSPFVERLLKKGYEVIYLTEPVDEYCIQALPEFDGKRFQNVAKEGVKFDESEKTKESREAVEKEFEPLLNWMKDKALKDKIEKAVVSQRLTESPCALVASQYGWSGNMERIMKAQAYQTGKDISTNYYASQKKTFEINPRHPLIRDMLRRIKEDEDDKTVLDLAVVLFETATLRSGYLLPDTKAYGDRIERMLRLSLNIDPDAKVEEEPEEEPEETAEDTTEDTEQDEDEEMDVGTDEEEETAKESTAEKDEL
P4HB, sequence (P07237 whole entry): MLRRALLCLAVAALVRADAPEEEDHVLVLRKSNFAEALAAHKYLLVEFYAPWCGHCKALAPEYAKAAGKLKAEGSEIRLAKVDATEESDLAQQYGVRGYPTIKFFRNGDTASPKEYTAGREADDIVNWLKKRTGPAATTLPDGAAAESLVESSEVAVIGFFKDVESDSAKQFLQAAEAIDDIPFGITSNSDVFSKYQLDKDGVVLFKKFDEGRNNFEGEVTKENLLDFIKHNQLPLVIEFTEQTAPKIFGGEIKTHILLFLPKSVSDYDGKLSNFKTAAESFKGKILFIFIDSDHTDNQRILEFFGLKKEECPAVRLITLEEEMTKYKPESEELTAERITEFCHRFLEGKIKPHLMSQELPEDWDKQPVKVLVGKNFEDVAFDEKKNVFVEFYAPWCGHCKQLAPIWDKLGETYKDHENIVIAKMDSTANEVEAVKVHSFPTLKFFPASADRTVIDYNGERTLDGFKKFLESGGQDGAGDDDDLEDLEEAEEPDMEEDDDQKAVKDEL
CANX, sequence (P27824 whole entry): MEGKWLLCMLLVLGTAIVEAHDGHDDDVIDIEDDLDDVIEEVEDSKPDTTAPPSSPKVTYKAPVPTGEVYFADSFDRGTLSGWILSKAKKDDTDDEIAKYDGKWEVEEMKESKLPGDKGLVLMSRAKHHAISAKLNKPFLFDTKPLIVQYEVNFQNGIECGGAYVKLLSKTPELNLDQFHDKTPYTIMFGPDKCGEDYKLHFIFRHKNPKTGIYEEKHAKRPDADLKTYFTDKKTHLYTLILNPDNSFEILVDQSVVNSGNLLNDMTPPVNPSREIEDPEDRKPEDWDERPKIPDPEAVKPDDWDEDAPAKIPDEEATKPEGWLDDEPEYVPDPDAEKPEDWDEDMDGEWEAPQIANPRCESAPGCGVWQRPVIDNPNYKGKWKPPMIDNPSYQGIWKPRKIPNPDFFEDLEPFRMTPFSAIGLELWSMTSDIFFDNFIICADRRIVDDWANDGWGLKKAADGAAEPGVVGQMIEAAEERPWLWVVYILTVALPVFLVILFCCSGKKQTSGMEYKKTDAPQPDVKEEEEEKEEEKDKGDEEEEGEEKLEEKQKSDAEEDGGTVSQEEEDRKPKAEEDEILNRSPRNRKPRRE
PDIA3, P30101, sequence (P30101 whole entry): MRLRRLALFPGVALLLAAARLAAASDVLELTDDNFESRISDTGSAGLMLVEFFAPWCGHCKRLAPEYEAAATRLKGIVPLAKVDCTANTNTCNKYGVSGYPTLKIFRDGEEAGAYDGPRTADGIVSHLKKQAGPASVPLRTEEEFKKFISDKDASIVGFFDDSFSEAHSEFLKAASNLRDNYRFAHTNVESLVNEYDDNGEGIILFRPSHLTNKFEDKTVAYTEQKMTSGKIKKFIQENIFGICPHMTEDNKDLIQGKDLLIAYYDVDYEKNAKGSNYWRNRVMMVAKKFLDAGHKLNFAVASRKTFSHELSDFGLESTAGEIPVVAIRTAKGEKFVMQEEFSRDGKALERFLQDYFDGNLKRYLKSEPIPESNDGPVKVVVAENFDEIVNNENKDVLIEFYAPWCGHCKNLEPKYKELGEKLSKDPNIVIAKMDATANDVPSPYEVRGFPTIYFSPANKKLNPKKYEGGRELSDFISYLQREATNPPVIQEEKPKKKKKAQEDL

Substance | cross-linked residues
HSPA5, P11021 | K185 - K360 and K340 - K43 and K340 - K62 and K340 - K64 and K340 - K360 and K340 - K374 and K370 - K41 and K370 - K43 and K370 - K62 and K370 - K153 and K370 - K360 and K376 - K43 and K376 - K153 and K516 - K360 and K523 - K43 and K523 - K209 and K523 - K360 and K547 - K153 and K579 - K43 and K579 - K360 and K596 - K153 and K596 - K360
PDIA4, P13667 | K245 - K360 and K366 - K374 and K391 - K360 and K637 - K360
PPIB, P23284 | K84 - K360 and K92 - K62 and K92 - K153 and K92 - K360 and K116 - K43 and K116 - K62 and K116 - K153 and K116 - K209 and K116 - K355 and K116 - K360 and K116 - K368 and K116 - K374 and K165 - K360 and K165 - K374 and K186 - K64 and K186 - K153 and K186 - K209 and K186 - K360 and K186 - K368 and K195 - K153
ITGB1, P05556 | K87 - K153 and K100 - K209 and K238 - K374
P4HB, P07237 | K71 - K360 and K71 - K374 and K409 - K153 and K415 - K360

Target: H4C1 (UniProt P62805)
Test: cross-linking mass spectrometry
Settings: DSSO, in cells

Substance | cross-linked residues
HMGA1, P17096 | K15 - K9 and K46 - K9 and K55 - K9
BANF1, O75531 | K32 - K9 and K32 - K32 and K32 - K78
H1-5, P16401 | K49 - K9 and K78 - K9 and K140 - K9 and K168 - K9

Target: PDIA3 (UniProt P30101)
Test: cross-linking mass spectrometry
Settings: DSSO, in cells

Substance | cross-linked residues
HSPA5, P11021 | K370 - K289 and K370 - K460
CALR, P27797 | K41 - K332 and K43 - K82 and K43 - K94 and K43 - K104 and K43 - K130 and K43 - K425 and K43 - K466 and K43 - K494 and K62 - K466 and K64 - K104 and K64 - K130 and K64 - K466 and K143 - K130 and K153 - K82 and K153 - K94 and K153 - K104 and K153 - K129 and K153 - K130 and K153 - K214 and K153 - K226 and K153 - K460 and K209 - K75 and K209 - K82 and K209 - K94 and K209 - K104 and K209 - K129 and K209 - K130 and K215 - K75 and K215 - K82 and K360 - K82 and K360 - K104 and K360 - K214 and K360 - K226 and K360 - K417 and K360 - K460 and K360 - K494 and K368 - K417 and K368 - K422 and K368 - K425 and K368 - K466 and K368 - K494 and K374 - K332 and K374 - K415 and K374 - K417 and K374 - K422 and K374 - K425 and K374 - K460 and K374 - K494
PPIB, P23284 | K84 - K466 and K116 - K332 and K116 - K417 and K116 - K425 and K186 - K129 and K186 - K417
CANX, P27824 | K89 - K130 and K90 - K104 and K90 - K130 and K90 - K332 and K90 - K466

Target: PDIA6 (UniProt Q15084)
UniProt Q15084, sequence (Q15084 whole entry): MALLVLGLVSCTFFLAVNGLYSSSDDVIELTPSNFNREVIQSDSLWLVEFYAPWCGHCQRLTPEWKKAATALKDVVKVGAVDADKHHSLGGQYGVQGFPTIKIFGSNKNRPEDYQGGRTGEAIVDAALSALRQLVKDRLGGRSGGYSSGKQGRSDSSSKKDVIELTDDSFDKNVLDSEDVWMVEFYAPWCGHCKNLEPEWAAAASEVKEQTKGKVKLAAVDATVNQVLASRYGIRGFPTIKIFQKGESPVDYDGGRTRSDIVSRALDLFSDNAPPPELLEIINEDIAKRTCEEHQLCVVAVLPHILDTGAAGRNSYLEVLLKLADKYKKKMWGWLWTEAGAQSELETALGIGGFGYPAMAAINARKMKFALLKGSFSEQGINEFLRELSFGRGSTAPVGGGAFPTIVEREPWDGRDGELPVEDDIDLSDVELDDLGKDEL
Test: cross-linking mass spectrometry
Settings: DSSO, in cells

Substance | cross-linked residues
HSPA5, P11021 | K113 - K150 and K185 - K150 and K213 - K150 and K213 - K368 and K287 - K150 and K340 - K150 and K352 - K150 and K370 - K150 and K370 - K159 and K376 - K150 and K446 - K85 and K446 - K150 and K446 - K160 and K446 - K245 and K516 - K67 and K516 - K85 and K516 - K150 and K516 - K159 and K516 - K160 and K516 - K245 and K521 - K150 and K523 - K66 and K523 - K85 and K523 - K150 and K523 - K159 and K523 - K160 and K523 - K245 and K547 - K66 and K547 - K150 and K547 - K159 and K547 - K326 and K547 - K328 and K553 - K150 and K553 - K241 and K553 - K245 and K573 - K150 and K579 - K67 and K579 - K85 and K579 - K150 and K579 - K245 and K596 - K150 and K621 - K241 and K621 - K245
PDIA3, P30101 | K332 - K150 and K362 - K150
CALR, P27797 | K43 - K150 and K153 - K150 and K360 - K150 and K368 - K150
PPIB, P23284 | K116 - K159 and K186 - K150
HSP90B1, P14625 | K597 - K150 and K597 - K159 and K633 - K150
P4HB, P07237 | K31 - K150 and K71 - K150
